# PubChem BioAssay AID757 (NMMLSC, 2007)
# The whole screen tested about 190,000 compounds, of which about 520 (0.27%) were called active. Inconclusive results, whose numbers are uncertain, are shown with a selection of clear calls.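 How the source made its calls: active means GTP binding activity at least 20 points away from the 100% control level, either lower or higher; inconclusive means compound flagged as likely green fluorescent, judged across all proteins; inactive means the rest.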
# Biological target: Ras-related C3 botulinum toxin substrate 1 (Homo sapiens) (UniProt P63000)
# Assay: wildtype Rac1 GTP binding modulators, primary screen, biochemical, GST-Rac1 beads, flow cytometry, multiplex (AID 757)
# Conditions: fluorescent GTP binding, at 10 µM, actives lie on both sides, 0 = cold GTP competed, 100 = untreated
row,Compound,GTP binding activity (% of control)
1,O=C(CNC(=S)N(Cc1ccccc1F)C1CCCCC1)NCC1CCCO1 (configuration not stated),inactive: 101%
2,Cc1ccc(-c2csc(-c3c[nH]c4ccccc34)n2)c(C)c1,inconclusive: 98%
3,O=C(CCC(=O)c1ccc(Oc2ccccc2)cc1)Nc1cccc(Cl)c1Cl,inconclusive: 93%
4,CCOC(=O)C1(Cc2ccccc2)CCCN(Cc2ccccn2)C1 (configuration not stated),inconclusive: 97%
5,COc1cccc(-n2c(Cc3cc(=O)[nH]c(=O)[nH]3)nnc2SCc2cccc(C(F)(F)F)c2)c1,inactive: 98%
6,C#CC1(NC(=O)N(C)C)CCCCC1,inconclusive: 101%
7,COc1cccc(CC2(CO)CCCN(Cc3cn[nH]c3-c3cc(C)ccc3C)C2)c1 (configuration not stated),inactive: 100%
8,C/C=N\NC(=O)COc1cc(C)ccc1C,inactive: 100%
9,COc1cc(NC(=S)NCCc2ccc(S(N)(=O)=O)cc2)c(OC)cc1Cl,inactive: 97%
10,O=C(NCC1CCCO1)C1CC(=O)N(C2CCCCCC2)C1 (configuration not stated),inconclusive: 108%
11,C=C(C)c1cccc(C(C)(C)NC(=O)Nc2ccc3[nH]c(=O)[nH]c3c2)c1,inconclusive: 106%
12,Nc1nonc1-c1nc2ccccc2n1CC(=O)N/N=C/c1ccc(-c2ccccc2C(=O)O)o1,active: 77%
13,CN(Cc1ccc(-n2cccn2)cc1)Cc1nc(-c2cnccn2)no1,inconclusive: 101%
14,COc1ccc2cc3cc(C(=O)NCc4ccccn4)oc3nc2c1,inconclusive: 94%
15,CN(C)S(=O)(=O)c1ccc(N2CCCC2)c(C(=O)N2CCN(c3ccc([N+](=O)[O-])cc3)CC2)c1,inconclusive: 94%
16,Cc1cc2nc3c(=O)[nH]c(=O)[nH]c3nc2c([N+](=O)[O-])c1N,inconclusive: 69%
17,COc1ccc(/C=N/NC(=O)c2ccco2)cc1Cn1nc(C)c([N+](=O)[O-])c1C,inactive: 95%
18,CC(NC(=O)C1C2C=CC(C2)C1C(=O)O)c1ccccc1 (configuration not stated),inconclusive: 108%
19,COCCCNC(=O)c1ccc2nc3ccccc3c(=O)n2c1,inconclusive: 95%
20,C(=N\N(Cc1ccccc1)c1ccccc1)/c1cccnc1,inactive: 101%
21,CCN1C(c2ccccc2)=C(c2ccccc2)S/C1=C/C=C1\SC(=S)N(C)C1=O,active: 71%
22,COc1ccc(NC(=S)N2CCNC(=O)C2CC(=O)Nc2cccc(Cl)c2C)cc1 (configuration not stated),inactive: 97%
23,CCOC(=O)n1c(=O)n(Cc2ccc(Cl)c(Cl)c2)c2ccccc21,inactive: 92%
24,COc1ccccc1N=c1oc2c(OC)cccc2cc1C(=O)NCc1ccco1,inconclusive: 88%

row,Compound,GTP binding activity (% of control)
1,CCCc1nc2ccccc2n1Cc1ccccc1OC,inactive: 101%
2,CNCCCCOc1ccc(C(C)(C)C)cc1Cl,inactive: 99%
3,Cc1ccc(C)c(CSCC(=O)NCc2cccs2)c1,inconclusive: 95%
4,COc1ccc(CC(=O)N2CCOCC2)cc1,inconclusive: 105%
5,COc1ccc(CNc2oc(Cc3cccc4ccccc34)nc2C#N)cc1,inconclusive: 104%
6,O=C(Nc1ccc(N2CCOCC2)c(Cl)c1)c1ncn[nH]1,inconclusive: 113%
7,Cc1ccc(C(=O)/C=C/c2ccc(-c3ccc(C)cc3)o2)cc1,inconclusive: 92%
8,Cc1cc(C)n(C(=O)CNC(=O)C2COc3ccccc3O2)n1 (configuration not stated),inactive: 104%
9,O=C(O)c1cc(-c2ccc(/C=C3/SC(=S)N(Cc4ccccc4)C3=O)o2)ccc1Cl,active: 74%
10,O=C1CC(/C=C/c2ccco2)=Nc2ccccc2N1,inconclusive: 107%
11,CCOC(=O)c1c(NC(=S)NCC2CCCO2)sc(C)c1C (configuration not stated),inconclusive: 94%
12,O/N=C1\CC/C(=N\O)c2nn(-c3ccccc3Cl)nc21,inconclusive: 95%
13,CCn1cc([N+](=O)[O-])c(C(=O)Nc2nc3ccc(OC)cc3s2)n1,inactive: 95%
14,O=C(O)C1Sc2[nH]c(=O)sc2C2c3cc(Cl)ccc3OC(=O)C12 (configuration not stated),inconclusive: 89%
15,COc1ccc(N(CC(=O)NCc2ccco2)S(=O)(=O)c2ccccc2)cc1,inconclusive: 93%
16,O=C(OC(C(=O)NCc1cccs1)c1ccccn1)c1cccs1 (configuration not stated),inconclusive: 35%
17,CNC(=S)Nc1cccc(S(=O)(=O)NC2=NCCC2)c1,inactive: 102%
18,CCOC(=O)c1c(NC(=O)C(=O)N/N=C/c2ccc(OCC)cc2)sc2c1CCCCC2,inactive: 104%
19,c1csc(-c2nn3cnnc3c3ccccc23)c1,inactive: 95%
20,CCOc1cc(S(=O)(=O)NC2CCCCC2)ccc1F,inconclusive: 89%
21,COc1ccccc1/C=N/NC(=O)CCn1cnc2ccccc21,inconclusive: 103%
22,O=C(c1cccc(F)c1)N1CCN(S(=O)(=O)c2ccccc2)CC1,inconclusive: 107%
23,CCCCNC(=O)CSc1nc2ccccc2c(=O)n1CCNC(C)=O,inconclusive: 105%
